From publication PMC7819943, “Rice protein-binding microarrays: a tool to detect cis-acting elements near promoter regions in rice”
Some of the results follow.

What follows are sequences tested against T1, OsWOX13 (Oryza sativa, UniProt Q5QMM3 1-267) (assay: protein-binding microarray (RPBM); PBS, 2% BSA, 51.3 ng/ul salmon testes DNA, 50 uM zinc acetate, 200 nM TF, 25 C, 1 h; high values mean tight binding). Conditions: protein: recombinant; tags: N-terminal polyhistidine and DsRed monomer fusion (pET32a); label: CyDye5-dUTP incorporated in the synthesized complementary strand; 3' TTTTT single-stranded linker to array surface; dsDNA, one strand shown.
T1 sequence: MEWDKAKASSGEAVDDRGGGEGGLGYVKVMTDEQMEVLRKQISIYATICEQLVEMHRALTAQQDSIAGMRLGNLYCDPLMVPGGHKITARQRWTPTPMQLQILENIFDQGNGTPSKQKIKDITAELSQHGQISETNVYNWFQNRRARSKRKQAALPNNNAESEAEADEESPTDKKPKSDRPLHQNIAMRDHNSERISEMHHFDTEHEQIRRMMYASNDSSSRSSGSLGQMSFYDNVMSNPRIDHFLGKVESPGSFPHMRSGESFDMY
In short: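 In PBS with 2% BSA, salmon testes DNA and 50 µM zinc acetate, 200 nM protein was incubated on a custom Agilent array at 25 °C for 1 h and then washed off. The array had been made double-stranded by primer extension with Cy5-dUTP and blocked with 2% BSA. The proteins were transcription factors fused N-terminally to polyhistidine and DsRed, expressed in E. coli BL21-CodonPlus and purified on Ni–NTA. The binding signal is per-feature fluorescence intensity (arbitrary units) from an Axon 4000B scanner.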

| Sequence | binding signal |
| --- | --- |
| CATAATTTCTTCTGCTCTTTATCTGAAACCTTCACTTGTGCGGAGTCACCTAGTGCAG | 13700 fluorescence intensity (a.u.) |
| AAATGACTGAATTCTGCCTAGTTAATATATAGAATTAAGCCGGAGTCACCTAGTGCAG | 4470 fluorescence intensity (a.u.) |
| CCTCTAATTTCATACTAATCCACTAATGAAATATCTGACCCGGAGTCACCTAGTGCAG | 15900 fluorescence intensity (a.u.) |
| CCAAAGCACCAATCATCTAGCTACTTCTATGCTTTCTTCACGGAGTCACCTAGTGCAG | 5800 fluorescence intensity (a.u.) |
| ACCATGATTTGACAATATGGTGCTACAGTAAACATTTGCTCGGAGTCACCTAGTGCAG | 40800 fluorescence intensity (a.u.) |
| TTGATGAGCAAAATTTGTTTGGTTTTATTTTACATGCAGCCGGAGTCACCTAGTGCAG | 12400 fluorescence intensity (a.u.) |
| TATCAAATTTGAATTCAAACCTAAACTCCAATTCTCTCCACGGAGTCACCTAGTGCAG | 5380 fluorescence intensity (a.u.) |
| CAAATTAACAGAAAAGAAAATGATCTACATTCCCCTCATCCGGAGTCACCTAGTGCAG | 19800 fluorescence intensity (a.u.) |
| CTGACGGATAGTATGATTATCATGTTCGTTTCTGTTTCAACGGAGTCACCTAGTGCAG | 10200 fluorescence intensity (a.u.) |
| ATCTAAAATTATTAAAATTAAATTGAAGAGTAGGGTAGCACGGAGTCACCTAGTGCAG | 23000 fluorescence intensity (a.u.) |
| CCCGGACGGGATCTGTAATTATATGCAATGCTATCAGACGCGGAGTCACCTAGTGCAG | 4470 fluorescence intensity (a.u.) |
| TGCAAATCCAATCCAATCCAATCCCACCCCAAGCTCGCGGCGGAGTCACCTAGTGCAG | 4070 fluorescence intensity (a.u.) |
| AGTGTTAATTAGGCCCTTCACAGTGCAACCCGGTGGACCGCGGAGTCACCTAGTGCAG | 14500 fluorescence intensity (a.u.) |
| GGGATGTGTCAATTTAGGACCAAAATAATACACTTTGACACGGAGTCACCTAGTGCAG | 12000 fluorescence intensity (a.u.) |
| GTAAGTCGTGTTAATTAAGCCTCCTAATCCATCACTGACACGGAGTCACCTAGTGCAG | 6180 fluorescence intensity (a.u.) |
| GGATTCAATTATAAAAGCATCTCTCCATCAGCAAGCAAGGCGGAGTCACCTAGTGCAG | 3350 fluorescence intensity (a.u.) |
| TGTTAATAATCATCTGGTAATTGATTGCTCTAAAGATAGACGGAGTCACCTAGTGCAG | 31700 fluorescence intensity (a.u.) |
| CTGCATGATTAGTTAGGCATAAGCATGTGACGAGGATCCTCGGAGTCACCTAGTGCAG | 12400 fluorescence intensity (a.u.) |
| ATTTTCTGTTAAACTTTTGATTGGATCCATCTTTGTAATCCGGAGTCACCTAGTGCAG | 40400 fluorescence intensity (a.u.) |
| GATAATTGTGGTGGAGAGAAAGAGGGCAATCTGGTCCAGACGGAGTCACCTAGTGCAG | 16500 fluorescence intensity (a.u.) |
| ATCTAACTAATTTGTTGGGTCCACCACATTGTTATAAATACGGAGTCACCTAGTGCAG | 16100 fluorescence intensity (a.u.) |

| Sequence | binding signal |
| --- | --- |
| GTGAGTGATGAATTCATCACTTGTAGACAGTTACATACCACGGAGTCACCTAGTGCAG | 4020 fluorescence intensity (a.u.) |
| ATAACAGAGCTAGTACTTAATTGGAGGTTTGGAACACAACCGGAGTCACCTAGTGCAG | 3980 fluorescence intensity (a.u.) |
| TTAAATGATAGAAATACAATTATTACGGAATAGAATGTAGCGGAGTCACCTAGTGCAG | 29100 fluorescence intensity (a.u.) |
| GGTTAAATTTCTCTTATTTATTAGGGTGCCACTTGACGGTCGGAGTCACCTAGTGCAG | 10400 fluorescence intensity (a.u.) |
| CATGTTTTACGTAAATTGATCAATATTGTGTAGCATCATACGGAGTCACCTAGTGCAG | 7110 fluorescence intensity (a.u.) |
| CATTGATAGTTTGGTGGGATTAGGATGGGAATCAATTGATCGGAGTCACCTAGTGCAG | 13900 fluorescence intensity (a.u.) |
| ACAAAATTGGAGCGCTCATAATTTTACTGCAAGAAACCAGCGGAGTCACCTAGTGCAG | 6130 fluorescence intensity (a.u.) |
| CACTCATTGATTTGTCAGCTGCCCCATGTCGGCCGAGGTTCGGAGTCACCTAGTGCAG | 28600 fluorescence intensity (a.u.) |
| ATAGATAGATTTTAGAATCCCAAAACTCTCTTGTCGTCCTCGGAGTCACCTAGTGCAG | 15600 fluorescence intensity (a.u.) |
| TAGTCAATTTAATAGTCAATTCATACTACACTATTAATATCGGAGTCACCTAGTGCAG | 16500 fluorescence intensity (a.u.) |
| CGCGTGACAGTGCGAGTGATGATTAGAAAAGTAAAATCCGCGGAGTCACCTAGTGCAG | 12400 fluorescence intensity (a.u.) |
| TTATGTAATTATTATTTATTTTATTGTGACTTAATTTATCCGGAGTCACCTAGTGCAG | 15500 fluorescence intensity (a.u.) |
| ATTATTGATAGTCCAGTAACTTGGGTATGTGGGGAAGTGGCGGAGTCACCTAGTGCAG | 23600 fluorescence intensity (a.u.) |
| GTGACGTCACCATTTTCATTTAATTAGAGTTGGCCGGAGACGGAGTCACCTAGTGCAG | 3870 fluorescence intensity (a.u.) |
| TTGCGTTGTCGATTTATCAATCAATTGCTCAGATGCTAATCGGAGTCACCTAGTGCAG | 17600 fluorescence intensity (a.u.) |
| CAAATTATCAGAAAACTACAGATTTAACATGATGTATTATCGGAGTCACCTAGTGCAG | 3480 fluorescence intensity (a.u.) |
| GTACAGGCTTAATTGGGTCCTTTCTTGGTGTCACAATCTGCGGAGTCACCTAGTGCAG | 7460 fluorescence intensity (a.u.) |
| ATTGTTAAATCAAGACGTAATTAGGCTCAAAAGATTTGTCCGGAGTCACCTAGTGCAG | 13300 fluorescence intensity (a.u.) |
| TTATTATTATCAATTAACCCCATATCATTGGGATTGGGAGCGGAGTCACCTAGTGCAG | 32600 fluorescence intensity (a.u.) |
| AGTAATTGATTAATTTTGTGACAGAGGTGGTCACTATATGCGGAGTCACCTAGTGCAG | 61000 fluorescence intensity (a.u.) |
| TCCTCTTTGCTTGATTTGCTTCCGCTGCTGCTGTTAGGTGCGGAGTCACCTAGTGCAG | 3950 fluorescence intensity (a.u.) |
